# In PMC4336329 (PLoS ONE, 2015):
# The whole screen tested about 310,000 compounds, of which about 14,000 (4.5%) showed an effect of 50% or more. Effects have a minus sign here. The list shows a part of the results.
# Target: human ether-à-go-go-related gene (hERG) potassium channel (human, UniProt Q12809)
# Assay: primary screen, population patch clamp on CHO cells stably expressing hERG
# 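Further: peak tail current of the secondary pulse compared with the same well before compound.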
# human ether-à-go-go-related gene (hERG) potassium channel, sequence (Q12809 whole entry, looked up): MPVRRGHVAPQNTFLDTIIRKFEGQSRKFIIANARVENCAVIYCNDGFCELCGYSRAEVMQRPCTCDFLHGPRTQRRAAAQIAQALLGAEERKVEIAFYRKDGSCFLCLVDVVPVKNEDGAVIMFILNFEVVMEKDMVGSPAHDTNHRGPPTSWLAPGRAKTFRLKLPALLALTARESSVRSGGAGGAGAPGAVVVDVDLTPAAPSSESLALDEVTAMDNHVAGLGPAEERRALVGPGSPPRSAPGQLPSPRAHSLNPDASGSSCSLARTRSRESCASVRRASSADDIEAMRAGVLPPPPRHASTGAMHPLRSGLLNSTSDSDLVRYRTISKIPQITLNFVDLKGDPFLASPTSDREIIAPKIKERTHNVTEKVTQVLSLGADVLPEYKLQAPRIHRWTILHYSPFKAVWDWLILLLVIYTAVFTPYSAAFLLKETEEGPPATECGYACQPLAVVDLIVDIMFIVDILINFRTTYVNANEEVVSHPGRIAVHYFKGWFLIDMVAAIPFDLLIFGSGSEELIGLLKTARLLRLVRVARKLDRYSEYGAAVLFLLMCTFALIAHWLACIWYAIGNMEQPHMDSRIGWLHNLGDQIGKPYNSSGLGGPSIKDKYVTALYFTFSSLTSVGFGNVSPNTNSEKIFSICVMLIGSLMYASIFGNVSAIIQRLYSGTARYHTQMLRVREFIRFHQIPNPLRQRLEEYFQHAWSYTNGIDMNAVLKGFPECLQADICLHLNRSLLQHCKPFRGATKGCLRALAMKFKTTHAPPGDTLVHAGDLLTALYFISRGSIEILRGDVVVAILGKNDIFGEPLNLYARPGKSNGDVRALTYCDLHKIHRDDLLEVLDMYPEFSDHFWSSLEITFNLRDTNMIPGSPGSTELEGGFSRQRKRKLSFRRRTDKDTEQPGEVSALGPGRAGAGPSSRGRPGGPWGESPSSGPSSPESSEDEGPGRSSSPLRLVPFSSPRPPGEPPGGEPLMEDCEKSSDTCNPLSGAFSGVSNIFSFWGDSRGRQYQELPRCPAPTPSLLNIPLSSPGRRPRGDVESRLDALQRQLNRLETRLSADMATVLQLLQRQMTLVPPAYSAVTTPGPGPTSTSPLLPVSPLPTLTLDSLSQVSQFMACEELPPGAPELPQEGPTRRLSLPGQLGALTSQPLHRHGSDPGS
row,SMILES,"hERG current change (%, negative = inhibition) at 10uM [%]"
1,COC(=O)c1ccc(COC(=O)CNS(=O)(=O)c2ccccc2)cc1,7.79
2,O=C(CSc1nnnn1-c1cccnc1)NCc1cccs1,9.62
3,COc1ccc(N(CC(=O)NC2CCCCCC2)S(=O)(=O)c2ccccc2)cc1Cl,11.3
4,COc1ccc(C(=O)N/N=C/c2ccc(OC)c(CN3CCc4cc(OC)c(OC)cc4C3C)c2)cc1 (centres unmarked),-76
5,N#Cc1c(-c2ccccc2)nc2n(c1=O)CCS2,5.34
6,Cc1cc2c(c(=O)o1)C(C13C=CC(CC1)C3)C(C#N)=C(N)O2 (centres unmarked),-2.83
7,CCCCn1nnnc1SCC(=O)N1CCN(C(=O)c2ccco2)CC1,-48.5
8,Cc1[nH]c2ccc(S(N)(=O)=O)cc2c1C,12.2
9,Cc1cc([N+](=O)[O-])ccc1Nc1nc2ccccc2n2cnnc12,4.48
10,CS(=O)(=O)/C(C#N)=C/c1c(-c2ccccc2)nc2n1CCS2,1.34
11,O=C(CCn1c(=O)oc2ccccc21)NCCN1CCc2ccccc2C1,-31.5
12,Cc1ccc(S(=O)(=O)NNC(=S)Nc2ccccc2)cc1,3.05
13,CN(C)c1ccc(C(CNC(=O)c2ccco2)N2CCCC2)cc1 (centres unmarked),10
14,COc1ccc(S(=O)(=O)N(CC(=O)NCC2CCCO2)c2ccccc2)cc1OC (centres unmarked),8.74
15,CCOc1ccccc1C(=O)N(C)Cc1cc2ccccc2[nH]c1=O,5.8
16,CCCCn1c(=O)[nH]c(=O)c2c1nc(-c1ccc(OCCC)c(OCC)c1)n2CCOC,-22.6
17,O=c1nc(/C=C/c2cccn2-c2ccc([N+](=O)[O-])cc2)cc(C(F)(F)F)[nH]1,6.29
18,O=C(O)COCc1nc2ccccc2s1,-7.92
19,CCOc1ccc(NC(=O)CN(c2ccc(OC)cc2)S(C)(=O)=O)cc1,2.36
20,COc1ccc(NC(=O)C2=CCN(S(=O)(=O)c3ccccc3)CC2)cc1OC,-32.6
21,CCC(c1nnnn1C1CCCC1)N1CCC(C(N)=O)CC1 (centres unmarked),17.7
22,COc1ccc(-c2nc(C#N)c(NCc3ccccc3Cl)o2)cc1OC,5.43

row,SMILES,"hERG current change (%, negative = inhibition) at 10uM [%]"
1,O=C1[C@@H]2CSCN2C(=O)CN1Cc1ccc(F)cc1,6.06
2,Cc1ccc(NS(=O)(=O)c2ccc3c(c2)c(=O)n(C)c(=O)n3C)cc1F,-15.5
3,NC(C(=O)O)C1CC(Cl)=NO1 (centres unmarked),7.96
4,CCN(CC)C(=O)Cn1cc(C(=O)C(=O)NCCc2ccc(S(N)(=O)=O)cc2)c2ccccc21,-7.14
5,COc1ccc(C(CNC(=O)COc2ccccc2C#N)N2CCOCC2)cc1 (centres unmarked),-1.14
6,C=COCCNC(=S)N1CCOCCOCCN(C(=S)NCCOC=C)CCOCCOCC1,10.4
7,N#Cc1c(-c2ccc(Cl)cc2Cl)nc2n(c1=O)CCS2,-7.97
8,COc1cc(C2=NOC(C(=O)NCc3cccnc3)C2)cc(OC)c1OC (centres unmarked),6.74
9,CCOC(=O)c1c(C)[nH]c(C)c1S(=O)(=O)N(C)CC(=O)Nc1ccccc1,-0.28
10,N#CCC(=O)N/N=C/c1c(-c2ccccc2)n(-c2ccccc2)c2ccccc12,-1.17
11,C=CCN1C(=O)C(O)(CC(=O)c2ccco2)c2cc(Br)ccc21 (centres unmarked),11.2
12,O=C1CC(N2CCN(c3ccccn3)CC2)C(=O)N1c1ccc(Cl)cc1 (centres unmarked),4.46
13,COc1ccc(CCNC(=O)CCn2c(=O)[nH]c3cc(OC)c(OC)cc3c2=O)cc1OC,-24.4
14,CCOC(=O)C1(CCOc2ccccc2)CCN(Cc2cc(OC)ccc2OC)CC1,-73.2
15,O=C(OCC(=O)N1CCc2ccccc2C1)c1ccc(OC(F)F)cc1,-80.2
16,O=C(NCc1ccc(F)cc1)C1CCN(S(=O)(=O)c2cccnc2)CC1,-1.49
17,COc1ccc(C(C)NC(=O)c2ccccc2Br)cc1OC (centres unmarked),10
18,O=c1cc(O)nc(SCc2ccccc2)n1-c1ccccc1,8.64
19,Cc1cccc(N(CC(=O)NC(C)(C)C)C(=O)CCC(=O)Nc2nccs2)c1,-1.32
20,COc1ccc(C(=O)Nc2nc(-c3ccccc3)c(C(C)=O)s2)c(OC)c1,31.2
21,CN(CCc1ccccn1)C(=O)CCC1CCCN(C(=O)c2ccccn2)C1 (centres unmarked),21.8
22,COc1ccc(Cc2nnc(SCC(=O)N3CCCC(C)C3)o2)cc1 (centres unmarked),14.8
